# In the supplement of paper PMC8728848:
# Some of the results follow.
# B1: Pa IMPa (Pseudomonas aeruginosa), Q9I5W4 (protein)
# chain: MSLSTTAFPSLQGENMSRSPIPRHRALLAGFCLAGALSAQAATQEEILDAALVSGDSSQLTDSHLVALRLQQQVERIRQTRTQLLDGLYQNLSQAYDPGAASMWVLPANPDNTLPFLIGDKGRVLASLSLEAGGRGLAYGTNVLTQLSGTNAAHAPLLKRAVQWLVNGDPGAATAKDFKVSVVGVDKTAALNGLKSAGLQPADAACNALTDASCASTSKLLVLGNGASAASLSATVRARLQAGLPILFVHTNGWNQSSTGQQILAGLGLQEGPYGGNYWDKDRVPSSRTRTRSVELGGAYGQDPALVQQIVDGSWRTDYDWSKCTSYVGRTTCDDVPGLSDFSKRVDVLKGALDAYNQKAQNLFALPGTTSLRLWLLWADAVRQNIRYPMDKAADTARFQETFVADAIVGYVREAGAAQKELGSYAGQRQQSMPVSGSEETLTLTLPSAQGFTAIGRMAAPGKRLSIRIEDAGQASLAVGLNTQRIGSTRLWNTRQYDRPRFLKSPDIKLQANQSVALVSPYGGLLQLVYSGATPGQTVTVKVTGAASQPFLDIQPGEDSSQAIADFIQALDADKADWLEIRSGSVEVHAKVEKVRGSIDKDYGGDVQRFIRELNEVFIDDAYTLAGFAIPNQAKTPAIQQECAARGWDCDSETLHKLPGTQHINVDQYAQCGGGCSGNPYDQTWGLNPRGWGESHELGHNLQVNRLKVYGGRSGEISNQIFPLHKDWRVLREFGQNLDDTRVNYRNAYNLIVAGRAEADPLAGVYKRLWEDPGTYALNGERMAFYTQWVHYWADLKNDPLQGWDIWTLLYLHQRQVDKSDWDANKAALGYGTYAQRPGNSGDASSTDGNDNLLLGLSWLTQRDQRPTFALWGIRTSAAAQAQVAAYGFAEQPAFFYANNRTNEYSTVKLLDMSQGSPAWPFP
# Legend:
# Test in all cases: glycan array binding signal (z-score within array); higher = stronger binding
# Settings in all cases: glycan notation: IUPAC condensed, linker removed
# [1] = target: Fuc(a1-2)[Gal(a1-3)]Gal(b1-4)GlcNAc(b1-2)Man(a1-3)[Fuc(a1-2)[Gal(a1-3)]Gal(b1-4)GlcNAc(b1-2)Man(a1-6)]Man(b1-4)GlcNAc(b1-4)[Fuc(a1-6)]GlcNAc
# Summary of the method: (§1)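 Glycan array data were curated from 3228 arrays in the Consortium for Functional Glycomics database and kept only where the protein sequence was available. Glycan names were converted to IUPAC-condensed notation, and columns mapping to the same glycan were averaged. The binding signal is a within-array Z-score, averaged across arrays of the same protein sequence at different concentrations or buffers and across linkers. Negative Z-scores can be read as non-binding.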
# [2] = target: Fuc(a1-2)[Gal(a1-3)]Gal(b1-4)GlcNAc(b1-3)GalNAc
# Summary of the method: as §1
# [3] = target: Fuc(a1-2)[Gal(a1-3)]Gal(b1-4)GlcNAc(b1-3)[Fuc(a1-2)[Gal(a1-3)]Gal(b1-4)GlcNAc(b1-6)]GalNAc
# Summary of the method: as §1
# [4] = target: Fuc(a1-2)[Gal(a1-3)]Gal(b1-4)GlcNAc(b1-6)GalNAc
# Summary of the method: as §1
# [5] = target: Fuc(a1-2)[Gal(a1-3)]Gal(b1-4)[Fuc(a1-3)]Glc
# Summary of the method: as §1
# [6] = target: Fuc(a1-2)[Gal(a1-3)]Gal(b1-4)[Fuc(a1-3)]GlcNAc
# Summary of the method: as §1
# [7] = target: Fuc(a1-2)[Gal(a1-3)]Gal(b1-4)[Fuc(a1-3)]GlcNAc(b1-3)GalNAc
# Summary of the method: as §1
# [8] = target: Fuc(a1-2)[Gal(a1-4)]Gal(b1-4)GlcNAc
# Summary of the method: as §1
# [9] = target: Fuc(a1-2)[GalNAc(a1-3)]Gal
# Summary of the method: as §1
# [10] = target: Fuc(a1-2)[GalNAc(a1-3)]Gal(b1-3)GalNAc(a1-3)[Fuc(a1-2)]Gal(b1-4)GlcNAc
# Summary of the method: as §1
# [11] = target: Fuc(a1-2)[GalNAc(a1-3)]Gal(b1-3)GalNAc(b1-3)Gal(a1-4)Gal(b1-4)Glc
# Summary of the method: as §1
# [12] = target: Fuc(a1-2)[GalNAc(a1-3)]Gal(b1-3)GlcNAc
# Summary of the method: as §1
# [13] = target: Fuc(a1-2)[GalNAc(a1-3)]Gal(b1-3)GlcNAc(b1-2)Man(a1-3)[Fuc(a1-2)[GalNAc(a1-3)]Gal(b1-3)GlcNAc(b1-2)Man(a1-6)]Man(b1-4)GlcNAc(b1-4)GlcNAc
# Summary of the method: as §1
# [14] = target: Fuc(a1-2)[GalNAc(a1-3)]Gal(b1-3)GlcNAc(b1-2)Man(a1-3)[Fuc(a1-2)[GalNAc(a1-3)]Gal(b1-3)GlcNAc(b1-2)Man(a1-6)]Man(b1-4)GlcNAc(b1-4)[Fuc(a1-6)]GlcNAc
# Summary of the method: as §1
# [15] = target: Fuc(a1-2)[GalNAc(a1-3)]Gal(b1-3)GlcNAc(b1-3)GalNAc
# Summary of the method: as §1
# [16] = target: Fuc(a1-2)[GalNAc(a1-3)]Gal(b1-3)GlcNAc(b1-6)GalNAc
# Summary of the method: as §1
# [17] = target: Fuc(a1-2)[GalNAc(a1-3)]Gal(b1-4)Glc
# Summary of the method: as §1
# [18] = target: Fuc(a1-2)[GalNAc(a1-3)]Gal(b1-4)GlcNAc
# Summary of the method: as §1
# [19] = target: Fuc(a1-2)[GalNAc(a1-3)]Gal(b1-4)GlcNAc(b1-2)Man
# Summary of the method: as §1
# [20] = target: Fuc(a1-2)[GalNAc(a1-3)]Gal(b1-4)GlcNAc(b1-2)Man(a1-3)[Fuc(a1-2)[GalNAc(a1-3)]Gal(b1-4)GlcNAc(b1-2)Man(a1-6)]Man(b1-4)GlcNAc(b1-4)GlcNAc
# Summary of the method: as §1
# [21] = target: Fuc(a1-2)[GalNAc(a1-3)]Gal(b1-4)GlcNAc(b1-2)Man(a1-3)[Fuc(a1-2)[GalNAc(a1-3)]Gal(b1-4)GlcNAc(b1-2)Man(a1-6)]Man(b1-4)GlcNAc(b1-4)[Fuc(a1-6)]GlcNAc
# Summary of the method: as §1
# [22] = target: Fuc(a1-2)[GalNAc(a1-3)]Gal(b1-4)GlcNAc(b1-3)Gal(b1-4)GlcNAc
# Summary of the method: as §1
# [23] = target: Fuc(a1-2)[GalNAc(a1-3)]Gal(b1-4)GlcNAc(b1-3)Gal(b1-4)GlcNAc(b1-3)Gal(b1-4)GlcNAc
# Summary of the method: as §1
# [24] = target: Fuc(a1-2)[GalNAc(a1-3)]Gal(b1-4)GlcNAc(b1-3)GalNAc
# Summary of the method: as §1
# [25] = target: Fuc(a1-2)[GalNAc(a1-3)]Gal(b1-4)GlcNAc(b1-3)[Fuc(a1-2)[GalNAc(a1-3)]Gal(b1-4)GlcNAc(b1-6)]GalNAc
# Summary of the method: as §1
# [26] = target: Fuc(a1-2)[GalNAc(a1-3)]Gal(b1-4)GlcNAc(b1-6)GalNAc
# Summary of the method: as §1
# [27] = target: Fuc(a1-2)[GalNAc(a1-3)]Gal(b1-4)[Fuc(a1-3)]GlcNAc
# Summary of the method: as §1
# [28] = target: Fuc(a1-2)[GalNAc(a1-3)]Gal(b1-4)[Fuc(a1-3)]GlcNAc(b1-3)GalNAc
# Summary of the method: as §1
# [29] = target: Fuc(a1-2)[GalNAc(a1-4)]Gal(b1-4)GlcNAc
# Summary of the method: as §1
# [30] = target: Fuc(a1-2)[GalNAc(b1-3)]Gal
# Summary of the method: as §1
binder,measurement,setting,value
B1,glycan array binding signal (z-score),[1],-0.407
same,glycan array binding signal (z-score),[2],-0.199
same,glycan array binding signal (z-score),[3],0.417
same,glycan array binding signal (z-score),[4],-0.268
same,glycan array binding signal (z-score),[5],-0.326
same,glycan array binding signal (z-score),[6],-0.141
same,glycan array binding signal (z-score),[7],-0.132
same,glycan array binding signal (z-score),[8],-0.253
same,glycan array binding signal (z-score),[9],-0.007
same,glycan array binding signal (z-score),[10],-0.32
same,glycan array binding signal (z-score),[11],-0.158
same,glycan array binding signal (z-score),[12],-0.035
same,glycan array binding signal (z-score),[13],-0.098
same,glycan array binding signal (z-score),[14],-0.127
same,glycan array binding signal (z-score),[15],-0.411
same,glycan array binding signal (z-score),[16],-0.321
same,glycan array binding signal (z-score),[17],-0.07
same,glycan array binding signal (z-score),[18],-0.169
same,glycan array binding signal (z-score),[19],0.093
same,glycan array binding signal (z-score),[20],-0.041
same,glycan array binding signal (z-score),[21],-0.216
same,glycan array binding signal (z-score),[22],-0.489
same,glycan array binding signal (z-score),[23],-0.22
same,glycan array binding signal (z-score),[24],-0.342
same,glycan array binding signal (z-score),[25],-0.147
same,glycan array binding signal (z-score),[26],-0.355
same,glycan array binding signal (z-score),[27],-0.022
same,glycan array binding signal (z-score),[28],-0.312
same,glycan array binding signal (z-score),[29],-0.112
same,glycan array binding signal (z-score),[30],-0.197
